Results reported in PubChem BioAssay AID686978 (National Center for Advancing Translational Sciences (NCATS), 2013).
Values joined by “and” are separate entries in the source; they are usually repeats but may differ in a detail not shown here. Equal entries are not always repeated. Screen size: about 420,000 compounds; about 64,000 (15%) were called active. The shares of active, inactive and inconclusive entries below differ from those in the screen. Calls follow the shape of the dose curve; as a rule, active = well fitted inhibition curve with a large enough effect; inconclusive = small, poorly fitted or top-dose-only effect; inactive = flat fitted curve, though single readings scatter. Potencies beside an inconclusive call are fits to weak or partial responses and may not hold up.

Assay: qHTS for Inhibitors of human tyrosyl-DNA phosphodiesterase 1 (TDP1): qHTS in cells in absence of CPT; also: nearly all actives have a fitted effect of over 55% in size
Details: DT40 Tdp1-/- hTDP1 cells, no CPT, ATP luminescence, 48 h; activity change, negative = growth inhibition: at 46.2 µM (top of the series) unless noted
In short: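 Chicken DT40 Tdp1-/- cells stably complemented with human TDP1 were seeded at 400 cells/well with DMSO in place of 20 nM camptothecin. After compound pinning, cells grew at least 48 hr at 37 °C; viability read by CellTiter-Glo luminescence.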
% is scaled to controls: 0 for no effect and ±100 for the full control effect; potency is read from the fitted curve at half-maximal effect; tags tell the direction and shape of the fitted curve.

SMILES | Potency | activity change, negative = growth inhibition
COC(=O)c1c(NC(=O)c2ccco2)sc2c1CCN(C(C)C)C2 | inactive | 
C[C@@H](NC(=O)c1ncn2c1c(=O)[nH]c1ccc(Br)cc12)c1ccccc1 | active: 20.6 µM | 
OC(CNCc1ccccn1)c1ccccc1 (configuration not stated) | inconclusive: 20.6 µM [inhibitor, single point] | 
O=c1oc2c(CN3CCOCC3)c(O)ccc2c2c1CCCC2 | inconclusive: 1.46 µM [inhibitor, full curve, poor fit] | 
COc1ccc(N2CCN(S(=O)(=O)c3ccc(OC)c(C(=O)N4CCCCC4)c3)CC2)cc1 | inconclusive: 18.4 µM [inhibitor, single point] | 
CCCOc1ccc(-c2cnc(N)s2)cc1 | inactive | 
Cc1nn(CC(=O)NC2(C)CCS(=O)(=O)C2)c(C)c1S(=O)(=O)N(C)C (configuration not stated) | inactive | 
CSc1nc2ccc(NC(=O)C3=NNC(=O)CC3)cc2s1 | inactive | 
COc1ccc(S(=O)(=O)N2CCN(C(=O)CSC(=S)N3CCCC3)CC2)cc1 | inconclusive: 25.9 µM [inhibitor, single point] | 
CCOc1ccc(-c2nnc(SCC(=O)Nc3cccc(Cl)c3C)o2)cc1 | inconclusive: 29.1 µM [inhibitor, single point] | 
O=C(CSc1nc2sc3c(c2c(=O)[nH]1)CCCC3)Nc1ccccc1F |  | inconclusive: -34.4% [inhibitor]
COc1cccc(-c2csc(N3CCN(C(=O)Nc4ccccc4Cl)CC3)n2)c1 | inconclusive: 29.1 µM [inhibitor, single point] | 
COc1ccc(C(C)(NC(C)=O)c2nc(-c3ccncc3)cs2)cc1 (configuration not stated) | inactive | 
CCCCCN(C(=O)CCC(=O)OCCOc1cccc(C)c1)c1c(N)n(CCCC)c(=O)[nH]c1=O | active: 20.6 µM | 
CCc1ccc(NC(=O)CCC(=O)N2CCSc3ccccc32)cc1 | inconclusive: 16.4 µM [inhibitor, partial curve] | 
CC1(C2CC2)NC(=O)N(CC(=O)N2CCN(c3ccccc3)CC2)C1=O (configuration not stated) | inactive | 
CCN(CC)S(=O)(=O)c1cccc(NC(=O)CN(C)C2CCCCC2)c1 | active: 14.6 µM | 
CC(=O)N1C=CN(C(C)=O)C(c2cn(C)c3ccccc23)C1c1cn(C)c2ccccc12 (configuration not stated) | inconclusive: 20.6 µM [inhibitor, partial curve] | 
O=C(Nc1ccccc1)c1cccnc1NCCc1ccccc1 | active: 16.4 µM | 
CCCCCNc1nc(-c2ccccc2)nc(-n2ccnc2)n1 | inconclusive: 18.4 µM [inhibitor, single point] | 
Cc1ccc(-c2nnn(CC(=O)N(CC(=O)NC3CCCC3)c3cccc(F)c3)n2)o1 | inactive | 
Cc1ccc(NC(=O)CCn2cnc3onc(-c4ccc(F)cc4)c3c2=O)c(Br)c1 | inactive | 
CC(C)Oc1ccc(CNS(=O)(=O)c2ccc(-c3cc(C(F)(F)F)on3)s2)cc1 | inactive | 
O=C(NCCc1nnc2n1CCN(Cc1ccc3c(c1)CCO3)CC2)c1ccco1 | inactive | 

SMILES | Potency | activity change, negative = growth inhibition
Cc1cccc(NC(=O)CN2CCN(C(=O)c3oc4c(Cl)cccc4c3C)CC2)c1C | inconclusive: 11.6 µM [inhibitor, partial curve] | 
Cn1cc(CN2CCCC(CO)C2)c(-c2ccc(Oc3ccccc3)cc2)n1 (configuration not stated) | inconclusive: 29.1 µM [inhibitor, single point] | 
Cc1ccnc2nc(C(=O)OCCOc3ccc(Cl)cc3)nn12 | inactive | 
COc1cccc(NCc2cc(=O)oc3cc(-c4ccccc4)c(O)cc23)c1 | active: 18.4 µM | 
C[C@@H]1CN([C@@H](C)CO)C(=O)CCCn2nncc2CO[C@@H]1CN(C)S(=O)(=O)c1ccc(F)cc1 | inactive | 
COc1ccccc1C(=O)NNC(=O)c1ccc2ccccc2c1O | inconclusive: 20.6 µM [inhibitor, single point] | 
COc1ccc(CCNC(=O)CCn2c(=O)c3ccccc3n(Cc3ccccc3C)c2=O)cc1OC | active: 18.4 µM | 
CCOC(=O)N1CCN(C(=O)c2sc3nc(-c4ccc(F)cc4)cn3c2C)CC1 | inconclusive: 29.1 µM [inhibitor, partial curve, poor fit] | 
COc1ccc(NC(=O)c2ccc(NC(=O)COC(=O)CC(NC(=O)c3ccccc3Cl)c3ccccc3)cc2)cc1 (configuration not stated) | inactive | 
Nc1nc(=O)n(C2CC(O)C(CO)O2)cc1F (configuration not stated) | inconclusive: 0.0326 µM [inhibitor, full curve] | 
COC(=O)c1ccc(NC(=O)CSc2nc(=O)n3cccc(C)c3n2)cc1 | inconclusive: 29.1 µM [inhibitor, single point] | 
Cc1cc(C)c(NC2=NCC(=O)N2C2CCCCC2)c(C)c1 |  | inconclusive: -35.6% [inhibitor]
O=[N+]([O-])c1ccc(-c2cnc(NO)nc2)cc1 | inconclusive: 3.26 µM [inhibitor, full curve] | 
CCOc1ccccc1/C=C/C(=O)c1ccc(Cl)cc1 | active: 16.4 µM | 
OCC1(CCOc2ccccc2)CCN(Cc2ccc(OC(F)F)cc2)CC1 | inconclusive: 25.9 µM [inhibitor, single point] | 
O=[N+]([O-])c1nccn1CCCCCCCCCCCN1CCOCC1 | inconclusive: 18.4 µM [inhibitor, partial curve, poor fit] | 
COc1cccc(CNc2nc3cc(-c4ccccc4C)sc3c(=O)n2C)c1 | active: 23.1 µM | 
Cc1ccc(C(O)c2ncc(-c3ccccc3Cl)[nH]2)cc1F (configuration not stated) | inconclusive: 18.4 µM [inhibitor, single point] | 
COc1ccc(S(=O)(=O)N(C)C[C@H]2Oc3ccc(NC(=O)Nc4ccc(C(F)(F)F)cc4)cc3C(=O)N([C@H](C)CO)C[C@@H]2C)cc1 | inconclusive: 29.1 µM [inhibitor, single point] | 
O=C(c1ccc(Cn2cnnn2)cc1)N1CCOc2ccc(C(O)C3CCCCC3)cc2C1 (configuration not stated) | inconclusive: 25.9 µM [inhibitor, single point] | 
O=c1cc(-c2ccccc2)nc2c(-c3ccccc3)c(C(F)(F)F)[nH]n12 | inconclusive: 16.4 µM [inhibitor, single point] | 
Cc1cc(NC(=O)CCC(=O)N(Cc2ccco2)C(C(=O)NC2CCCCC2)c2cccs2)no1 (configuration not stated) | inconclusive: 20.6 µM [inhibitor, single point] | 
O=C(O)c1ccc(N=NNc2cccc([N+](=O)[O-])c2)cc1 |  | inconclusive: -31.3% [inhibitor]
CCc1nc2ccc(C(=O)NCc3ccc4c(c3)OCO4)cn2c1N(CC)CCOC | inconclusive: 23.1 µM [inhibitor, single point] | 

SMILES | Potency | activity change, negative = growth inhibition
C=CCN(CC=C)Cc1c(O)ccc2c(=O)c(-c3ccccc3)coc12 | inconclusive: 4.11 µM [inhibitor, single point] | 
CC(=O)Nc1ccc(S(=O)(=O)NCC2CCCO2)cc1 (configuration not stated) | inactive | 
Cc1ccc(NC(=O)CSc2nnc(Cn3c(=O)sc4ccccc43)n2C)cc1Cl | inactive | 
CC(C)(C)NC(=O)NC(=O)COC(=O)c1cccc(OC(F)F)c1 | inactive | 
COC(=O)Nc1sc(C(=O)N(C)C)c(C)c1C(=O)OC | inactive | 
O=C(CCc1nc(-c2ccccc2Cl)no1)Nc1cccnc1 | inconclusive: 25.9 µM [inhibitor, single point] | 
Nc1ccccc1S(=O)(=O)NC1=NCCCCC1 | inactive | 
Cc1c(CCC(=O)NCCCN2CCCC2=O)c(=O)oc2cc(O)ccc12 | inactive | 
Cc1ccc2nc(SCC(=O)N3CCC(Cc4ccccc4)CC3)nc(=O)n2c1 | inconclusive: 23.1 µM [inhibitor, single point] | 
O=C1NC(Cc2ccc(O)cc2)c2nc3ccc(Br)cc3c(=O)n2-c2cc3ccccc3cc21 (configuration not stated) | active: 9.2 µM | 
O=C(NN1CCOCC1)c1cc(Cl)ccc1Cl | inactive | 
N#C/C(=C(\O)Cc1ccccc1)c1nc2ccccc2[nH]1 | inconclusive: 8.2 µM [inhibitor, partial curve] | 
COc1cccc(CN2CCCN(S(=O)(=O)c3ccc(Br)cc3)CC2)c1 | inconclusive: 18.4 µM [inhibitor, single point] | 
O=C(Nc1cccc(-c2cnc3ccccc3n2)c1)c1ccco1 | active: 16.4 µM | 
Cc1ccc(OCCC(=O)OCC(=O)c2c(N)n(CC(C)C)c(=O)n(C)c2=O)cc1 | inconclusive: 13 µM [inhibitor, single point] | 
COc1cccc(NC(=O)C2CCN(c3nnc(-n4c(C)ccc4C)s3)CC2)c1 | inconclusive: 8.2 µM [inhibitor, partial curve] | 
CCc1ccc(OCC(=O)Nc2ccncc2)cc1 | inconclusive: 29.1 µM [inhibitor, single point] | 
Cc1ccc(CNC(=O)C2CCCN(Cc3nc(-c4cccc(C)c4)oc3C)C2)cc1 (configuration not stated) | inconclusive: 23.1 µM [inhibitor, single point] | 
O=C(NCC1CC1)c1onc(CSc2ccc(F)c(F)c2)c1C(=O)NCC1CC1 | inconclusive: 29.1 µM [inhibitor, single point] | 
CCCCOc1ccc(S(=O)(=O)N2CCCCC2)cc1 | inconclusive: 29.1 µM [inhibitor, single point] | 
CC(=O)c1ccc(OCc2cn(CC(=O)c3ccc(O)cc3)nn2)c(C)c1 | inactive | 
Cc1ccc(-c2nc3c(c(SCC(=O)Nc4cccc(C(=O)O)c4)n2)Cc2cccc(C)c2O3)cc1 | inactive and inconclusive: 35.5 µM [inhibitor, single point] | 
Cc1cccc(OCCSc2ncnc3nc[nH]c23)c1 | inconclusive: 23.1 µM [inhibitor, partial curve] | 
CCCc1cc(=O)[nH]c(SCC(=O)NC(=O)NC2CCCC2)n1 | inconclusive: 23.1 µM [inhibitor, single point] | 
